In PubChem BioAssay AID686978 (National Center for Advancing Translational Sciences (NCATS), 2013):
Screen size: about 420,000 compounds; about 64,000 (15%) were called active. The shares of active, inactive and inconclusive entries below differ from those in the screen. Calls follow the shape of the dose curve; as a rule, active = well fitted inhibition curve with a large enough effect; inconclusive = small, poorly fitted or top-dose-only effect; inactive = flat fitted curve, though single readings scatter. No potency is given beside an inconclusive call; the fits are too rough.

Test: qHTS for Inhibitors of human tyrosyl-DNA phosphodiesterase 1 (TDP1): qHTS in cells in absence of CPT; also: nearly all actives have a fitted effect of over 55% in size
Details: DT40 Tdp1-/- hTDP1 cells, no CPT, ATP luminescence, 48 h; activity change, negative = growth inhibition: at 46.2 µM (top of the series) unless noted
Outline: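 Seeded 400 DT40-hTDP1 cells/well (vehicle DMSO, no 20 nM CPT); pinned compounds; ≥48 hr at 37 °C; CellTiter-Glo luminescence as viability measure.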
% is scaled to controls: 0 for no effect and ±100 for the full control effect; potency is read from the fitted curve at half-maximal effect; tags tell the direction and shape of the fitted curve.

Row | Structure (SMILES) | activity change, negative = growth inhibition | Potency
1 | Cc1cc(C(=O)NNc2ccc(C(C)C)cc2)n(C(C)(C)C)n1 | inactive: -28.6% | –
2 | CCc1cccc(C)c1Nc1c(-c2cccc(O)c2)nc2nc(C)cc(C)n12 | – | inconclusive [inhibitor, single point]
3 | COCc1cc(C)nc(OC)c1C(N)=O | inactive: -6.29% | –
4 | CCOC(=O)c1cnc(N2CCN(C(=O)OCC)CC2)[nH]c1=O | inactive: 7.18% | –
5 | Cc1ccc(CN(Cc2ccco2)C(=O)c2ccc(Cl)cc2)o1 | – | inconclusive [inhibitor, partial curve, poor fit]
6 | CCc1ccc(-n2c(=O)c3c(C)c(C(=O)N(C)C)sc3n(Cc3ccccc3C#N)c2=O)cc1 | inactive: -22.3% | –
7 | CCc1ccccc1NC(=O)CSc1ncc(S(=O)(=O)c2ccc(C(C)C)cc2)c(N)n1 | – | inconclusive [inhibitor, single point]
8 | CC1CCN(c2c(NCc3ccc(C(=O)N4CCN(C5CCCCC5)CC4)cc3)c(=O)c2=O)CC1 | inactive: -15.6% | –
9 | Cc1ccc(C(=O)Nc2cccc(NC(=O)c3ccc(C)o3)n2)o1 | inactive: -29.2% | –
10 | NC(=O)Nc1ccc(/C=C/c2ccnc3ccccc23)cc1 | – | active: 12.6 µM
11 | CCCCC/C=C\C/C=C\C/C=C\C/C=C\CCCC(=O)O[C@@H](CO)COC(=O)CCCCCCCCCCCCCCCCC | inactive: -1.93% [at 4.12 µM] | –
12 | Cc1cccc(NC(=O)c2cc(-c3cccnc3)nc3c(C)cccc23)n1 | – | active: 14.6 µM
13 | Cc1csc2nc(O)c(C(=O)NCCCc3ccccc3)c(=O)n12 | – | active: 14.6 µM
14 | COc1cccc(OC)c1C(=O)Nc1cc2c(cc1N1CCOCC1)n(C)c(=O)n2C | inactive: 18% | –
15 | CN(Cc1ccncc1)C(=O)[C@@H]1CCCN1C(=O)[C@@H]1CCCN1 | inactive: -14.6% | –
16 | NC(c1csc(NC(=O)Nc2ccccc2Cl)n1)C1CCCCC1 (configuration not stated) | – | active: 16.4 µM
17 | O=C(Nc1ccc2c(c1)OCO2)c1ccc([N+](=O)[O-])cc1[N+](=O)[O-] | – | inconclusive [inhibitor, partial curve]
18 | Nc1cc(S(=O)(=O)Nc2ccccc2Cl)ccc1N1CCCCC1 | – | active: 9.2 µM
19 | NNC(=O)CCn1nnc2ccccc21 | inactive: -1.4% | –
20 | CCOc1c(CC2C(=O)Nc3ccc(Br)cc32)cccc1OC (configuration not stated) | – | active: 16.4 µM
21 | CC1(C)CC2(C)OC2C2(C1)N=NC(=Nc1ccccc1)O2 (configuration not stated) | – | active: 4.11 µM
22 | COc1ccc(S(=O)(=O)CC2(O)CCN(C(=O)CC(C)C)CC2)cc1 | inactive: 6.73% | –
23 | N#Cc1cnc2nc(SCc3ccccc3)nn2c1 | – | inconclusive [inhibitor, single point]
24 | O=c1ccc2cc(S(=O)(=O)N3CCN(c4cc(Cl)ccc4Cl)CC3)ccc2o1 | – | inconclusive [inhibitor, single point]
25 | COc1cc(O)c(CCC(=O)c2ccc(OC)c(OC)c2)c(OC)c1 | – | inconclusive [inhibitor, single point]
26 | O=C1CSC(=Nc2ccc(Cl)cc2)N1Cc1cccnc1 | – | inconclusive [inhibitor, single point]

Row | Structure (SMILES) | activity change, negative = growth inhibition | Potency
27 | COc1cccc(C(=O)Nc2sc3c(c2C(=O)O)CCCC3)c1 | – | inconclusive [inhibitor, partial curve]
28 | NS(=O)(=O)OCC(Cc1ccccc1)N1C(=O)c2ccccc2C1=O (configuration not stated) | inactive: -20.7% | –
29 | COc1ccc2cc(C#N)c(N3CCN(C(=O)c4ccccc4C)CC3)nc2c1 | – | inconclusive [inhibitor, single point]
30 | CCOc1ccccc1CNc1ncnc2onc(-c3ccc(F)cc3)c12 | – | active: 23.1 µM
31 | COc1ccc(OC)c(CCNC(=O)c2ccc(CS(=O)(=O)c3ccc(Br)cc3)o2)c1 | – | inconclusive [inhibitor, single point]
32 | OC(c1cccc(F)c1)c1ncc(-c2ccc(Oc3ccccc3)cc2)[nH]1 (configuration not stated) | – | inconclusive [inhibitor, single point]
33 | CCCCN(CCCC)CCNC(=O)CN1C(=O)COc2ccc(S(=O)(=O)N3CCOCC3)cc21 | inactive: -17.6% | –
34 | CC1CCCCN1C(=O)CSc1nc2ccccc2nc1Cc1ccccc1 (configuration not stated) | – | inconclusive [inhibitor, single point]
35 | Nc1cccc(-c2nc3ccc(C(=O)c4ccccc4)cc3[nH]2)c1 | – | active: 0.82 µM
36 | Cc1[nH]c(=O)[nH]c(=O)c1/C=N/NC(=O)CCNC(=O)OC(C)(C)C | inactive: 21.8% | –
37 | CC1(C(=O)NC2CCN(Cc3ccccc3)CC2)CCN1CCc1ccccc1 (configuration not stated) | – | inconclusive [inhibitor, single point]
38 | N=c1c(C(=O)NC2CCCCC2)cc2c(=O)n3ccccc3nc2n1Cc1ccccc1 | – | inconclusive [inhibitor, single point]
39 | Cc1ccc(C)c(C(=O)COC(=O)c2ccccc2N2C(=O)C3C4CCC(C4)C3C2=O)c1 (configuration not stated) | – | active: 20.6 µM
40 | N/C(=N/O)c1nc(N2CCCCC2)nc(N2CCCCC2)n1 | – | inconclusive [inhibitor, single point]
41 | Cc1ccccc1N1C(=O)CC(N2CCC(C(N)=O)CC2)C1=O (configuration not stated) | – | inconclusive [inhibitor, single point]
42 | COC(=O)c1cccc(NC(=O)CN2CCN(c3ccc(OC)cc3)CC2)c1 | – | inconclusive [inhibitor, single point]
43 | CCC(=O)N(Cc1cc2cc(OC)ccc2[nH]c1=O)c1cc(C)ccc1C | inactive: -29.3% | –
44 | COc1cc(-c2cc(N)n(S(=O)(=O)c3ccccc3)n2)cc(OC)c1OC | – | inconclusive [inhibitor, single point]
45 | O=C(CN(C(=O)CCC(=O)Nc1ccccn1)c1ccc(F)cc1)NCCc1ccccc1 | inactive: -0.374% | –
46 | CCCn1c(-c2ccc[nH]c2=O)nc2cc(C)c(C)cc21 | inactive: -1.46% | –
47 | CC(C)c1ccc(-c2c(C#N)c(N)nc(SCC(=O)N3CCCCC3)c2C#N)cc1 | – | inconclusive [inhibitor, partial curve]
48 | Cc1ccc(-c2nc3ccc(Cl)cn3c2Cc2cccc(Cl)c2)cc1 | – | active: 16.4 µM
49 | C/C(=N/NC(=O)C1COc2ccccc2O1)c1ccco1 (configuration not stated) | inactive: -14.3% | –
50 | CC(=O)N1CCN(c2ccccc2NC(=O)Cc2ccc(Cl)cc2)CC1 | – | inconclusive [inhibitor, partial curve]
51 | O=C(c1ccc(Br)o1)N(Cc1ccccc1)Cc1ccccc1 | – | inconclusive [inhibitor, partial curve]
52 | CCCC[C@@H]1CCCO[C@@](C(=O)NCc2ccccn2)(C(F)(F)F)C1 | – | inconclusive [inhibitor, single point]

Row | Structure (SMILES) | activity change, negative = growth inhibition | Potency
53 | CCN(CC)c1ccc(NC(=O)CN2CCN(S(=O)(=O)c3ccc(C(C)C)cc3)CC2)cc1 | – | inconclusive [inhibitor, single point]
54 | Cc1cc(C)cc(NC(=O)CC(C)n2nc(C)cc2C)c1 (configuration not stated) | – | inconclusive [inhibitor, single point]
55 | c1ccc2cc(CNCc3cccc4ccccc34)ccc2c1 | – | inconclusive [inhibitor, single point]
56 | C=CCONC(=O)c1cc(OCC(F)(F)F)ccc1OCC(F)(F)F | inactive: -3.84% | –
57 | CCn1c(SC)nc2c([nH]c3ccccc32)c1=O | inactive: 3.83% | –
58 | Cc1cccc(C)c1N1CCN(S(=O)(=O)N2CCCCC2)CC1 | – | inconclusive [inhibitor, single point]
59 | O=C(N/N=C/c1ccccc1O)c1cc[n+]([O-])cc1 | – | active: 29.1 µM
60 | CC1CN(c2sc(S(C)(=O)=O)nc2S(=O)(=O)c2ccc(Cl)cc2)CC(C)O1 (configuration not stated) | inactive: -18.9% | –
61 | O=[N+]([O-])c1cccnc1N1CCN(c2ccc(F)cc2)CC1 | inconclusive: -30.9% [inhibitor] | –
62 | CCOC(=O)c1c(S(=O)(=O)N2CCC(C(=O)Nc3ccc(C)cn3)CC2)c(C)n(C)c1C | inactive: 10.8% | –
63 | CCN(CC(=O)NCc1ccc(F)cc1)C(=O)c1cccnc1SC | inactive: -0.242% | –
64 | CC(Sc1nc2ccccc2c(=O)n1CCc1ccc(S(N)(=O)=O)cc1)C(=O)NC(N)=O (configuration not stated) | – | inconclusive [inhibitor, single point]
65 | O=C(CNC(=O)c1ccc2c(c1)OCO2)N/N=C(Br)/C=C/c1ccccc1 | – | active: 7.31 µM
66 | CC(=O)c1cccc(-c2cnc3c(NC=O)cc(-c4ccccc4F)cn23)c1 | – | inconclusive [inhibitor, single point]
67 | Cc1ccc(S(=O)(=O)N(C)C)cc1NC(=O)c1cncc(Br)c1 | – | active: 11.6 µM
68 | CN(c1nc(-c2ccc(Br)cc2)cs1)C1CCS(=O)(=O)C1 (configuration not stated) | – | inconclusive [inhibitor, single point]
69 | CN(C)CCCN(C(=O)C1COc2ccccc2O1)c1nc2ccc(F)cc2s1 (configuration not stated) | – | inconclusive [inhibitor, single point]
70 | Cc1c(C(=O)N(C)c2ccc(Cl)cc2)cnn1-c1ccccc1 | – | active: 4.61 µM
71 | CCc1ccc(C(C)NC(=O)/C(C#N)=C\c2cn[nH]c2-c2ccccc2)cc1 (configuration not stated) | – | inconclusive [inhibitor, partial curve]
72 | c1ccc(-n2cc(CN3CCC(N4CCOCC4)CC3)c(-c3ccc4c(c3)OCO4)n2)cc1 | – | inconclusive [inhibitor, single point]
73 | Cc1ccc([N+](=O)[O-])cc1NCC(=O)NN | inactive: -14.5% | –
74 | Cc1ccc(C(=O)NCC(C)NC(=O)c2ccc(C)c(C)c2)cc1C (configuration not stated) | – | active: 25.9 µM
75 | COc1ccc(OC)c(C2=C/C(=C/c3ccccn3)C(=O)O2)c1 | inactive: -34% | –
76 | CCC(=O)N1CCC1(C)C(=O)Nc1ccccc1 (configuration not stated) | inactive: 1.42% | –
77 | O=C(CCC1CCCCC1)NCc1cccs1 | inactive: 1.85% | –
